Test results: the supplement of paper PMC3334620
Over roughly 33,000 sequences, “E-score (-0.5 to 0.5)” has its median near -0.035; the highest 2% begin near 0.35. The list shows a part of the results.

The sequences below were run against T1, Pdr3 (UniProt P33200) (assay: PBM E-score (8-mer binding enrichment) (E-score (-0.5 to 0.5)); higher = stronger / more preferred TF binding; most listed sequences are background and not binding sites). Details: protein concentration: 200 nM; construct: GST-full length.
T1 sequence: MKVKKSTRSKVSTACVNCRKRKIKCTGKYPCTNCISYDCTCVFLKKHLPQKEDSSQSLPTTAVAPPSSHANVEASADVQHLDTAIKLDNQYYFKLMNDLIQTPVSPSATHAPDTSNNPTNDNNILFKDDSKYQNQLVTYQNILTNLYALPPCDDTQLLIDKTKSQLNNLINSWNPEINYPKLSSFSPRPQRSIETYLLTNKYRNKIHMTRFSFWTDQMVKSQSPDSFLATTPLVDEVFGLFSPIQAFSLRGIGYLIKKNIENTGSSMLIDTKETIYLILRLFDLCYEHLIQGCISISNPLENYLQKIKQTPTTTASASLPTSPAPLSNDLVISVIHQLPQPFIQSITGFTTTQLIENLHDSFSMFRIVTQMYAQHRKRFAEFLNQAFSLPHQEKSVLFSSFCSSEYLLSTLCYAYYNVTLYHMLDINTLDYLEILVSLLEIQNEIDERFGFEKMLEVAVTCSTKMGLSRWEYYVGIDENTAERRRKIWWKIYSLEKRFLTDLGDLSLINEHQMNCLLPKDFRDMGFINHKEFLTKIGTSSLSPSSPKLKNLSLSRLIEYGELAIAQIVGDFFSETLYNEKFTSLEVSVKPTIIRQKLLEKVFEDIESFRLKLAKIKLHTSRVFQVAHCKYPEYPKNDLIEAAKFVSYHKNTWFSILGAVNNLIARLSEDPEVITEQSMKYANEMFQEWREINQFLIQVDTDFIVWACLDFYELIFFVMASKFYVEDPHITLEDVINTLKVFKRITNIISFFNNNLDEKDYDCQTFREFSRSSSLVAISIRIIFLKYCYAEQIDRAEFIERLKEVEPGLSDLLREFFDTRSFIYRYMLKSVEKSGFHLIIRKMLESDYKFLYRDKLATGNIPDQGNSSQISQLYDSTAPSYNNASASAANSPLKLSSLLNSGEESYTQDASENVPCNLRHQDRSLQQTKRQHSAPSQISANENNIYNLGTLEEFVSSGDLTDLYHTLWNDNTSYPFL
Method in brief: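 Yeast transcription factors carrying a GST tag, as full-length proteins or DNA-binding domains, were produced by PURExpress in vitro transcription/translation. About 100-200 nM protein was applied to universal all-10-mer Agilent arrays, double-stranded by primer extension on fresh or once-stripped slides. Bound protein was detected with fluorescent anti-GST, and scans were normalised with masliner. The Universal PBM Analysis Suite gave each ungapped eight-base word, pooled with its reverse complement, an E-score, a modified Wilcoxon-Mann-Whitney statistic.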

Sequence	PBM E-score
CCACTCTC	-0.0278
CCGACCAA	0.177
GGGCAGCA	-0.1
AGGCTCGA	-0.16
AGCCCATC	-0.0509
ACGACACT	-0.177
ACAGTCGC	-0.277
ACGAGTGG	-0.0946
AGTGATTG	-0.0596
CCGGTGGA	0.254
ATTCTAGA	-0.169
ACGTCGTA	-0.215
GCAAGACA	-0.173
GTTAATAA	0.136
CTGTCGAC	-0.154
CCACGGCG	0.182
TGGCCCAA	-0.0945
GCACCTCA	0.00746
CATCTTAA	-0.238
CGAGGTAG	0.0204
AACCTGAG	-0.0502
CTCAACGC	-0.146
AAATGACG	-0.0199
CGCTTCAG	-0.0104
CATGCGGA	0.209

Sequence	PBM E-score
CCAGGATA	0.0385
AGTGCACC	0.0331
ACACACAG	0.036
ACGTTATA	-0.0803
ATGATGAG	-0.121
CGCACCCA	-0.0255
CAGCACGC	0.0491
GTCTACTA	-0.0523
ACAACGGC	0.0581
ACAACCCA	-0.0147
AGTGCATC	-0.047
AAGGGAGG	-0.00086
AAGGCGGA	0.225
CGTCGACG	0.278
GTAGTTGA	0.0287
CATTAGTC	-0.0184
ACCGTTGG	0.0171
ACATGAGG	-0.0733
CTTTTACA	-0.0518
ATCCCACA	-0.102
ACGGGGTC	0.23
ATTCAGCC	-0.0375
ACGGCGCA	0.19
CGAAAGAC	-0.0528
GGTGTAAC	0.00381

Sequence	PBM E-score
GAAAGAGC	-0.0788
CCCAAACG	-0.103
ATGCACGG	0.182
CCCACGGC	0.0935
GCAGGCCA	0.0751
GAATATGA	0.0903
AGGGTCTA	-0.182
TACCGCGA	0.169
GTGAAAGA	-0.0383
AGTAGTTG	0.0866
CTGACCTC	-0.0557
AAATCGTG	0.0785
GATGTCCA	0.058
TGAGTGAA	-0.0335
GTAGGGCA	-0.154
ATCCCTTG	-0.136
CAAGGAAG	-0.0209
GAGATACC	0.158
ATCAGAAG	0.00355
AGGCAGCG	-0.144
CACCTCAC	-0.026
CTTGTATC	-0.166
GCCGGACC	0.303
ACCAATCT	-0.0122
CTGATGAC	-0.127

Sequence	PBM E-score
GCGGATGA	0.303
ATACAATA	0.142
ACCCTCGC	-0.051
CATGAGAG	-0.0845
AGGCGTTG	-0.0952
ACACCTCC	-0.0329
GTGGATCA	-0.178
AAAAAACG	-0.0282
AACCTCCC	0.0617
CGGTGATA	0.0933
GGAATTTA	0.212
AAGCAACT	-0.109
CTATCGCC	-0.185
CAGATTCC	0.242
CGCTAATC	0.0544
CCGTTAGC	-0.0333
CGTTATAC	-0.177
CCTCGGCC	0.251
ACACCCAC	-0.01
CAAATAAG	-0.0749
AGTAACTA	0.0843
ATTAGATG	0.0805
CATTCAAC	-0.03
TAAGGGAA	-0.127
CATCCGGC	0.295

Sequence	PBM E-score
TTAAAGAA	-0.061
ATACTCTA	-0.144
GTCGCCGA	0.131
AACCCGTC	0.0509
GCAGTAAC	-0.243
ACTTCAAC	0.0423
AAAAACTA	0.0302
GAGACACA	-0.0286
CTTAGTCC	-0.0741
TCACTAGA	0.0476
CGTGTGGA	-0.0657
TACCGCTA	-0.17
TAGCCGAA	0.0812
AGAACCGC	0.0223
AGACACTC	-0.198
CAGTAATG	-0.162
ACCGCCTC	-0.0991
AAGGCAAC	0.114
ACGGGACA	0.311
CAGATTTA	0.0318
AAGGTCGC	0.176
ACAGATCT	-0.113
CTATTCAG	-0.214
AGAGGGGC	-0.138
AATCACCC	0.0668

Sequence	PBM E-score
GCTGTAAC	-0.00561
AAAGATAC	0.0747
GTGCATAA	-0.0206
GTGGTCCA	0.0417
ACCAAACT	-0.00703
ACCATGAA	0.12
AGTTGGCC	-0.151
GCTTCCAC	-0.139
ATGCCAGA	-0.0896
CGGGCGCC	0.197
AATTGAGG	0.00764
AAGATCCT	-0.0701
GCCCAAGA	-0.176
ATATATCA	0.00415
GATCTCCC	0.0107
ACAACAAT	-0.119
ATGCAGTC	-0.256
CACCCGAG	0.204
ACTTGGCT	-0.127
AGCTATTC	0.0679
GGCGCTCA	0.0784
CTAACAGA	-0.028
AGCGACTC	-0.145
GTGGTGTA	-0.221
GCTAGTCA	-0.246

Sequence	PBM E-score
GGTGAAAA	0.2
CGCAGAGA	-0.112
AATAAATA	0.273
AGCTCCTG	-0.187
AATAAAGG	-0.266
TGAGTTAA	-0.0516
CCCAAGAG	-0.214
AGGGCACC	-0.172
AGAAGCCG	0.213
CATCAAGA	-0.0896
AACGTAAC	-0.0882
AAAAGTCT	-0.253
TGAATACA	0.0291
CAAAATAG	-0.109
AGCGACAG	-0.03
AGCATGGA	-0.2
GTACAATA	-0.153
TACGGCGA	0.0344
AGAGCATC	-0.0714
GGCGGCGA	0.243
CCGAGTAC	0.256
CCTATAAC	-0.288
AAGTCGTA	-0.323
ATATATCG	0.124
ACTCCCTG	-0.15

Sequence	PBM E-score
GGGGGCAA	-0.234
CAGACCTC	-0.0492
CAGGGCAA	0.0442
AGTCAACA	-0.103
AGGGTGAC	0.0577
GACCTTAA	-0.249
CTATATCC	0.107
ATATCCTC	0.0851
CGACATTC	0.039
AGAGTACT	-0.173
CAACTTGG	-0.0197
AGGGTGAG	-0.0933
CCATGACA	-0.101
CTGCTGGA	-0.176
ACCTATTA	-0.0773
ATAAACTC	0.225
CAGTATCG	0.116
ACAAGCCA	-0.107
ATTCATAA	-0.123
CCGCACAG	0.0967
CGGCAAGC	0.153
CCCTGGCG	-0.101
CTCGTGCC	-0.0174
AGGCAATG	-0.115
CCCCCTGC	-0.16

Sequence	PBM E-score
AGTCCTGC	-0.0695
CTGAGCAC	-0.169
GCAGACGC	-0.0419
AAGGGGTC	-0.189
GAGGTACA	-0.133
GCCTCCCC	-0.0413
CTCGTCGA	-0.0424
AACTGAAT	-0.181
CTATTCGC	-0.0138
GTAATCAA	0.0934
AACTATCT	0.00109
CAAGCAAC	-0.0453
ACCGAAGA	0.112
CTCGGCAA	0.194
AATTCTAG	-0.188
ATTGGCTA	-0.117
GTAACGTA	-0.165
CTTTATCC	0.0779
AGTTTAGA	0.00108
